The values below come from the RNAGym collection of RNA variant scans (doi:10.7554/elife.90254).

Read counts are not given, so values of variants with three or more changes are uncertain.

First the molecules themselves.
B1: OR4K15 (parent)
chain: GUUAACGGUCAUAGGCCAUGGAAACUAGGAGCACCAUUUCGCUGCCAGUGAAGAAAUGAACAAAGAAAAUCUGGGCCAGGCAGGCAUCAAAAGAAAUAGUCUUGCGCUCAACCAGAAAGUCUGUAAUCAUUUUAAGGGUA

In the series the parent is B1. The series can be described thus: self-cleavage, relative activity (ratio to wild type); higher = more cleavage; in vitro, sequencing; the parent is a self-cleaving ribozyme.
G29U A59G U100C U102A: the self-cleavage came out at 2.48.

In the case of G28U A59U A96G U132C, the self-cleavage was 1.61.

A30G A64G A67G A92G: the self-cleavage turned out to be 1.5.

With G28A G31A A63G A64U G99A U100C U131C U132C, the self-cleavage came to 1.8.

In the case of A30G A36G A51G A118U, the self-cleavage came to 0.34.

Turning to G28A A64G A67G, the self-cleavage was found to be 0.7.

On to A27G U102A U131C, for which the self-cleavage was 0.77.

With A30G A78U A94U, the self-cleavage was determined as 0.31.

For G29A U49C A92G, the self-cleavage worked out at 1.02.

Consider A30G A52C U103C A117G, for which the self-cleavage came to 1.2.

As for A30G A59G U70C, the self-cleavage was found to be 0.64.

With A30G A95U A116G, the self-cleavage came out at 1.05.

For the variant A30C A66G A92U A94G U108A, the self-cleavage was determined as 0.

In the case of G28A A56G U87C, the self-cleavage worked out at 1.78.

Regarding A27U U39C A59G A63G A64U U139A, the self-cleavage came out at 0.98.

As to G29U A56G A62G A98C A110C, the self-cleavage was determined as 0.19.

With A30G A62U A68G, the self-cleavage was 0.79.

Regarding A30G A67G A96G A111G A114G G123A, the self-cleavage turned out to be 0.02.

For A30G A94C U122C, the self-cleavage worked out at 1.27.

Turning to A27U U43C A59G U127C, the self-cleavage is 1.88.

Consider A30G A54G U100C A111G, for which the self-cleavage was 0.02.

As to G29A A54G U130C, the self-cleavage turned out to be 1.06.

With G29A U38C A67G G73U A114G, the self-cleavage stood at 0.06.

Consider G28U U57C U72A U87C U127C, for which the self-cleavage was determined as 0.04.

On to G29U U49C A60G, for which the self-cleavage was 1.05.

Consider A27G U72C A89G, for which the self-cleavage is 0.05.

For the variant A30G A89G A114U U132C, the self-cleavage worked out at 0.03.

For the variant G29U A55G A86G A95G, the self-cleavage is 2.51.

For G29A U72C A96G, the self-cleavage worked out at 0.33.

Consider A30G A64G A117G A135G, for which the self-cleavage came to 1.11.

In the case of A30G A56G G93U A140G, the self-cleavage came to 1.67.

For the variant A27U A60C A78G A116G, the self-cleavage is 0.23.

For the variant A30G A33G A52G A67G A111G A116G U139C, the self-cleavage turned out to be 0.

As to A30G A47C A51G U102C U120C U122C, the self-cleavage amounted to 0.31.

For A30G A33G A67G U120A U131C, the self-cleavage was 0.97.

For the variant A30G A110C U124C U133C, the self-cleavage was determined as 0.29.

For the variant A30G A33U A69G A96G U108C, the self-cleavage stood at 0.03.

As for G29A A33U U72C A86C, the self-cleavage was found to be 0.11.

Turning to G28U A60G A69G U124C, the self-cleavage came out at 0.26.

With A30G A59U A91U, the self-cleavage is 1.22.

Regarding A30G A66G A82U, the self-cleavage was 0.3.

Consider G29A C45U A114G, for which the self-cleavage amounted to 0.84.

Regarding A30G A59G A94G, the self-cleavage was 0.67.

Take A27U U102C A126G: the self-cleavage turned out to be 1.78.

With A30G A52G U70C, the self-cleavage was 1.23.

Consider A27U A67G A96G U124C, for which the self-cleavage amounted to 0.49.

Turning to A30G A56G A60C A69G, the self-cleavage is 1.43.

On to A30G A33G A64G A66U A86G A111G A118G, for which the self-cleavage stood at 0.02.

For A30G A52U A63G U87A A114C A118U, the self-cleavage is 0.03.

Consider G28A U49C A55G A67G A96G, for which the self-cleavage turned out to be 1.46.

With A30G A64G U97C G115A, the self-cleavage was 0.13.

Turning to G29A A56G A95G, the self-cleavage was found to be 2.57.

Regarding A30G A64G U72A, the self-cleavage was determined as 0.28.

On to A30G A64G A69G A92G, for which the self-cleavage was found to be 0.58.

As to G29U A67G A95G C107U, the self-cleavage is 0.01.

On to A30G A33G U72A U127G A135U, for which the self-cleavage was 0.14.

Consider A30G A64G G137U, for which the self-cleavage was 0.97.

For A27G U97A U122C, the self-cleavage is 2.09.

As for A27U G28U A55G A86G U122A, the self-cleavage is 1.63.

On to A30G A64U U100C, for which the self-cleavage turned out to be 1.39.

Take A30G A59U U87C U108C A111G U139A: the self-cleavage stood at 0.02.

Regarding A30G A116G U130C, the self-cleavage worked out at 0.13.

With A27U A82C A91U A126G, the self-cleavage is 0.11.

Take A30G A52G A62G A67G U124C: the self-cleavage is 1.03.

A27U G53A U57C U103A G119A: the self-cleavage worked out at 0.39.

Turning to A30G A56G A94G U132A, the self-cleavage is 2.25.

With A30G A33G U70C, the self-cleavage came to 0.44.

With G28A A33C A56C U57C U72G, the self-cleavage worked out at 0.23.

For the variant A30G A55G A98G A140G, the self-cleavage is 0.31.

Take G28A A54U A95G: the self-cleavage turned out to be 1.49.

In the case of A27U A51U A114U, the self-cleavage worked out at 0.04.

Regarding A30G A68G A89G A116U, the self-cleavage turned out to be 0.42.

Consider A27U A51U A86G U120C, for which the self-cleavage stood at 0.39.

In the case of A27G U108C U124A, the self-cleavage was determined as 0.03.

For the variant A30G A59G A62U A95G A110G A118G, the self-cleavage amounted to 0.2.

For G28C A117G U120C, the self-cleavage is 1.22.

For the variant A27G U122C A135G, the self-cleavage came out at 0.92.

Consider A30G A47G A67G A89U U102C, for which the self-cleavage was determined as 2.14.

Turning to A30G A96G A114U, the self-cleavage turned out to be 0.15.

Take A30G A68U A95G: the self-cleavage stood at 0.52.

For the variant G29U A54G A68G C105U, the self-cleavage stood at 0.16.

For A30G A94G C107G, the self-cleavage is 0.04.

As for A27U A36G U43C U49C A111G, the self-cleavage came out at 0.02.
